In the supplement of paper PMC11417369:
The list shows a part of the results.

Tested on: PF3D7_0420300 AP2 domain 1 (GST-tagged)
Experiment: gcPBM binding intensity (ln(normalized median fluorescence intensity)); higher = stronger DNA binding
Procedure, shortened: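 An Agilent 4 × 180k array carrying primer-extended double-stranded 36-bp intergenic genomic probes and negative controls received GST-tagged P. falciparum DNA-binding domains expressed in E. coli, about 25 μg on average, for 1 h. The binding buffer contained 1× PBS, 1% milk, 0.2 mg/ml BSA, 0.5% salmon testes DNA and 0.03% Triton X-100. Binding intensity is the top Masliner-normalised natural-log median intensity across replicate spots of either probe orientation, read after Alexa488 anti-GST antibody staining and a 488 nm scan.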

Row | Sequence | gcPBM binding intensity (ln)
1 | TACATATTGCACAAATAAAAAAGAACAAAAAAAAAA [CACACA_negctrl_site1200] | 9.32
2 | GAATTTCGATATATGTGTACGCATTTGTATTATAGG [XGTACX_site6332] | 9.33
3 | ATATATATATATATATGTACATATATTCGATTATTA [XGTACX_site557] | 9.27
4 | ATAATATTTCTTACCTTTGGATGTTCTAATTTTTTT [CACACA_negctrl_site1317] | 9.5
5 | AAAAATAACATATAAACACACATATATATATATATA [CACACA_site3802] | 9.52
6 | TTAATAGAAATACGTGCACACTAAAGGGAAAACAAT [CACACA_site4923] | 9.76
7 | ACAAGTATTAATTACACACTCAAAAAGAAAAAACAA [CACACA_site2281] | 9.41
8 | ATATATTCTATATATACATGCATATATATTATATGT [TGCATGCA_site185] | 9.15
9 | GTTAAATGAAAATATGTACACACTTGAAAATTTTTA [CACACA_site2924] | 9.27
10 | TGAATAAATATGCAGCGTACATAATCCTCTTAAAAT [XGTACX_site8462] | 9.16
11 | ATGCAACTATATATATATATTATATGTATGAATAAT [XGTACX_negctrl_site434] | 9.26
12 | GTACAAAATTGACAAGTGCAAAAATTAAAAGCAAGA [GTGCAC_site9838] | 9.48
13 | AAAGTATATAGGATACGTACATACATAAATAAATAA [XGTACX_site8216] | 9.39
14 | ATATATATATAAATATGTACATATATTTATTTCTTT [XGTACX_site3784] | 9.21
15 | GTGTGAGCACATTCGGGAGAGTTTTTTTTTTTTTTT [CACACA_negctrl_site1776] | 9.22
16 | TATAAAAATAAGCACACACACAAATATAGATTTATT [CACACA_site6558] | 10.1
17 | TATATTCAAAATGGTACACACAATATTTAATTGTGC [CACACA_site2631] | 9.37
18 | TGACATATAAAATATTCACACACAAGTTATAGTTCT [CACACA_site9209] | 9.59
19 | ACATTTTCTTATAAATGTACATATATATTATTATAT [XGTACX_site4404] | 9.28

Row | Sequence | gcPBM binding intensity (ln)
20 | AAAACTTTTAAAATTTTGTATTCATTCCTTCAACAA [GTGCAC_negctrl_site697] | 9.04
21 | TTTATAATTCCATAATGTACAAATAAAATAAAAAAT [XGTACX_site663] | 9.27
22 | AAAATTAATGTTGGTTGTACAAAAATTAAATATGGT [XGTACX_site66] | 9.42
23 | AGGAGGATAGTTCACAGTACCCAGTAACTCTACGAG [XGTACX_site2008] | 8.99
24 | GTACAAAGGACTATACATAGAAAAATATATATATAT [XGTACX_negctrl_site164] | 9.26
25 | TATATATACACACACACATGCATGCCGATATATATA [TGCATGCA_site29] | 10.2
26 | AAAAGATATTTGAATATACACACGATTTAAATTTAA [CACACA_site3865] | 9.39
27 | AAAGATTTAATCTATACATGCAAATATATAGAAAAG [TGCATGCA_site373] | 9.21
28 | AATAAAAATAGGAAATGTACACATATATATATATAT [XGTACX_site1853] | 9.23
29 | AGATGCCAAGTATAAAGTACATATCAAAATGTATAT [XGTACX_site456] | 9.19
30 | GAACAAAATTTTATATGTACATAATATTTATATATA [XGTACX_site3667] | 9.09
31 | TTATTTTATTTTTATACACACATGTTTTAATGTTCA [CACACA_site249] | 9.6
32 | TATAAAACACACACACATATATATATATATTTATAT [TGCATGCA_negctrl_site48] | 10
33 | AATTTTAAATTTAATTTACACACTTTTCATAGCATT [CACACA_site9264] | 9.41
34 | ATTTACAAAAATTTTGTATAAAGGGATTTTAAAATG [TGCATGCA_negctrl_site350] | 9.04
35 | GAAAAAAAAAAAAAAAGTACATTCTCTATTTCATGT [XGTACX_site3209] | 8.93
36 | ATAAATTTAAATAGGAGTACACAGCTTTATATTTTG [XGTACX_site4176] | 9.31
37 | TAATTACCATATGGTACACACATATTTATAGGTATA [CACACA_site7603] | 9.52
38 | ACGTATAATATGTACACACACATATATACCAAAAAA [CACACA_site4661] | 9.79

Row | Sequence | gcPBM binding intensity (ln)
39 | GATAAAATAATATATAGTACTTTTTTAAAATAAATA [XGTACX_site522] | 8.94
40 | CGCGCACCCAGACACACACACACACCCATATATATA [CACACA_site2203] | 10.2
41 | TGAACATCATTTTTATGTACACACACATATACGTTG [XGTACX_site3864] | 9.95
42 | GACGTGGAAAAAAAAACACACACAAAAAAAAAAAAA [CACACA_site9324] | 9.51
43 | AAAACAAACAAAAAAAAAAAAAAAAATATCAATCTA [TGCATGCA_negctrl_site203] | 9.13
44 | ATATATCATGCCAAGGGTACAAATGTGTAGTTGAAA [XGTACX_site2820] | 9.38
45 | TTTTTTAAATATTATTTTTATGAGTAAATATATTAT [GTGCAC_negctrl_site277] | 8.92
46 | GACAACGTTTCAATGTGTACATATTTATAATATATA [XGTACX_site2427] | 9.14
47 | TATATATATATATATACATGCATTTTTGTTTGCTTA [TGCATGCA_site256] | 9.15
48 | TTTTTTTTTTCTCCTGCATGCAGCATTTATATATTA [TGCATGCA_site390] | 9.59
49 | ATTGAAAAACCGTTTAGTACATATCATCACGTTTGT [XGTACX_site1295] | 9.19
50 | TATATATATATATGTACACACATCAATCATATTAAC [CACACA_site1946] | 9.64
51 | AAAATACGAATATAAACATGCACCATATAGAACAAA [TGCATGCA_site925] | 9.71
52 | TTTTTTTTTTTTTTTACACACTGCATACAAGAAAAA [CACACA_site5642] | 9
53 | TAAAATAAAATAAGTAGTACATATATAATTATATAT [XGTACX_site6733] | 9.33
54 | TACAAATATAGATGCACACACATATACATACCTATA [CACACA_site7094] | 9.81
55 | TTTTTACAAAAAAAAAAAAAAAAAATAAAAATAAAT [CACACA_negctrl_site1738] | 8.9
56 | TAAATCACAAAATTATGTACTAAGAAGGAGCAACAT [XGTACX_site6742] | 9.39
